# Experimental data reported in the supplement of paper PMC11417369.
# This is one part of the list.
# Test system: PfSIP2 AP2 domain 1 (GST-tagged)
# Assay: gcPBM binding intensity (ln(normalized median fluorescence intensity)); higher = stronger DNA binding
# Method in brief: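 Probes on an Agilent 4 × 180k array were primer-extended, double-stranded and 36 bp long, taken from intergenic genomic regions, with negative controls added. GST-tagged P. falciparum DNA-binding domains from E. coli, about 25 μg on average, were applied to the array for 1 h in 1× PBS containing 1% milk, 0.2 mg/ml BSA, 0.5% salmon testes DNA and 0.03% Triton X-100. Binding intensity, obtained after Alexa488 anti-GST antibody detection and a 488 nm scan, is the highest Masliner-normalised natural-log median intensity across replicate spots of either probe orientation.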
row,Sequence,gcPBM binding intensity (ln)
1,AAGGGAAAATTAAGGTTGCACTAAAAATATATCTTT [GTGCAC_site9608],7.85
2,ATGAACATACAATATACACACATATATATTTATATT [CACACA_site4609],7.12
3,AATTATATTCTATTCACACATATTCCAACCTCTTTT [CACACA_site4670],6.92
4,TTTGATGGTACACGTACACACCTTGCAAATATTTTT [CACACA_site4645],7.19
5,TGAAAGAACCTGATTACACACATAAATTATATATAT [CACACA_site26],7.3
6,ATGAATATAATAAAGAAACACACGTATACATAATGA [CACACA_site1355],6.9
7,TGTATGTTGTAAAATTGTACATATATATTATATTTA [XGTACX_site4883],7
8,AAAAGATAATTATGCACACACACACCCAGACACAAC [CACACA_site5428],7.85
9,AGTTCTTCGTACCAAAAAACGGCACGCATATGTATA [TGCATGCA_negctrl_site469],6.99
10,TGTATTCATACATGCACACGTACATATTTAAATATA [CACACA_site3926],7.32
11,TATTTCAAAAAAAAAAAAAATAAAAAACAACAACAA [CACACA_negctrl_site893],6.91
12,AAAAAAAATTATATATGTACTTATTAATCCTTATAT [XGTACX_site1389],6.86
13,ATTTATATATCGCCCACACACATGTGATTATTTATA [CACACA_site6905],7.15
14,TACTACTATCTATATTGTACAAAAGGTGCCTACAAA [XGTACX_site4267],7.65
15,TTCATTTATTTACTTACACACTTTATATATGTGGTT [CACACA_site4901],7.01
16,TCTATTCAAAATAAAAGTACTAGCATGTGAATTGTT [XGTACX_site5530],6.94
17,TACAAGTTTTTAAAGTGTACCAAAAAAAAAGAATAA [XGTACX_site979],7.37
18,ATATATAAAATATACACACATACTGTTCATTTAAAG [CACACA_site4169],6.98
19,ATCCTACTATGTTATACACACAATTACTTTTTTCTC [CACACA_site3712],7.39
20,TTACAACAGAATGGTATTTTTTTATTTTAAAGAAAA [TGCATGCA_negctrl_site230],6.71
21,AATATTTATGTGAAGACACACAACTGTTTATTATAT [CACACA_site3447],6.82
22,TTTTTTTTTTTTTGGTGTACTTTTTTTAGAACGCAA [XGTACX_site4207],7.58

row,Sequence,gcPBM binding intensity (ln)
1,AAAATTTATATAGGCACACAAATAAATTAATACATA [CACACA_site1418],6.76
2,AAAAATGAAAGGTGTACACATACAAACATAGAAAGA [CACACA_site5020],7.45
3,TTTTTTCTTTCTTTCAAACACACATTAATTTTATTC [CACACA_site2733],6.91
4,ATATTAGAAATATGAATAGAAAGAATATATAAGTAT [CACACA_negctrl_site682],7.15
5,TGTTCAAATTTATTCGATCTTTATATTTAATAAAAC [CACACA_negctrl_site781],6.83
6,ATTCTACACCCACATACACACATATATATATATATA [CACACA_site3426],9.66
7,AGATACTTTCCTCAAACACACAAAACTATACAACAA [CACACA_site1474],7.02
8,ATATTCTTCTAAAGGCGTACATCTACATTTATGAAA [XGTACX_site2145],7.39
9,ATTCAGTTCTATAATACACACATATATTGACATTAT [CACACA_site7309],7.17
10,GTTAGCTCGTTCGGAGCACACACATATATATATATA [CACACA_site8595],9.2
11,AAGTATGTCGACTGTTGTACTTTTATCATTTATTAT [XGTACX_site1129],7.08
12,ATATACTATGATAATACATGCGATAATACATTTTTA [TGCATGCA_site387],7.12
13,GTATGGCGTATCATATGTACTAAAAAAAAATAAAAA [XGTACX_site5101],7.34
14,AATAAAAAAATGTCACGTACTTATTTTATTAAACCT [XGTACX_site3031],6.91
15,TATTTATCATCATATTGTACATTATATATATAAAAT [XGTACX_site6675],6.87
16,TTATATGCTCAATGTTGTACATGTAGATATATATAT [XGTACX_site8211],8.41
17,ATATATATATATAGTGCACACATATAAAATATATAT [CACACA_site8884],10.1
18,ATCTGTCGACAGGACAGTACACAGTAGCCAGTAACT [XGTACX_site2001],6.88
19,ATAAAATATAGATGCACACACATATAGATTTCATAC [CACACA_site7636],7.32
20,TTTTTTAATTGTGATACGTATATTATTTAATGATAA [GTGCAC_negctrl_site704],7.05
21,TGTATATTTTTTATTACACACTTTTTACTTTTTAGA [CACACA_site3069],6.76
22,AGTATATACACGTGCGTGCACAGATATTCTTTTTTT [GTGCAC_site9398],8.32

row,Sequence,gcPBM binding intensity (ln)
1,ATCAAACCATAAAAGAGTACAAAAGGATGATATTTT [XGTACX_site8883],6.85
2,TATTTTAAAGAGAAAACATGCATTATATAGAACATT [TGCATGCA_site328],7.03
3,ATGGAAATATATACATGTACATAAATATATATATAT [XGTACX_site8391],9.38
4,AGTGGACTTTTTTTTTTTTTTTTTTTTTTTTTATTA [CACACA_negctrl_site547],6.8
5,ATGTTTTGCATATATTATATATTTATTTATTTTTTT [CACACA_negctrl_site729],7.07
6,AGTAGTCTGGAGAAGAGTACATAGTATCTGGTAACC [XGTACX_site2043],6.98
7,TATTTATTGTGATACTTATATTATTTTATGATTAAA [CACACA_negctrl_site901],6.83
8,AGAGAGATGACAAAAAGATGAATAACGTTAAGGGAT [XGTACX_negctrl_site120],7.03
9,TTGTTTTTCTTTGAATGTACTTAATGATTTCCAATT [XGTACX_site2499],7.07
10,TCCATATATTTTAAAAGTACACATAAAAATTATTTA [XGTACX_site8127],7.14
11,AATGGAAAAATAGGCACACACACATATATACATATA [CACACA_site1298],6.99
12,TAAAATAAAACAAACACACACACACGGACACAAAAA [CACACA_site7754],7.03
13,ATATAAATAAAATATACACACATACTGTTCATTTAA [CACACA_site7880],7.01
14,TTTTTTTTTTATTTTGCACACTTCTAATTTAGTTCT [CACACA_site5828],7.37
15,AAAAAAAAAAAAGATTGTACAGAATACTTTTAAAAT [XGTACX_site3576],6.86
16,AAGTTAATGAAAAAATGTACCCAGAGTATTTTAAAA [XGTACX_site2997],6.82
17,TGGGAAAATAATATTTATTTTATATATAAATATATA [CACACA_negctrl_site121],6.81
18,AAAATACTAGATAGGGGAAAAAAAAAAAAAAAAAAA [CACACA_negctrl_site1732],6.96
19,TATTGTAATATTAGCACACATTACCTCACTACAAAT [CACACA_site5419],7.14
20,AACATGAAAATATATGCATTTGTATATATATATATA [TGCATGCA_negctrl_site16],9.54
21,AATAAAACCCCGAAATCACACATTAAATGAAAAATA [CACACA_site4732],6.84
22,ATAAATGATAAAATTGCATGTGAATGTGAAAATATT [TGCATGCA_site251],6.93

row,Sequence,gcPBM binding intensity (ln)
1,AAAGCACCCATGCACACACACAAAGGAAAAGAAAAA [CACACA_site6249],9.4
2,ATAAAAAATAAATATATACATACATACATACATATA [XGTACX_negctrl_site507],6.68
3,ATAAAACAAAAATATAAACACACATACATTGGTTTT [CACACA_site8809],6.85
4,TTTTCAAAAATATACACACACATAAATATAGGTATA [CACACA_site6506],6.89
5,TTGATTTACTATAGATGTACGTAAAATATAAATAAA [XGTACX_site8256],7.1
6,AATTTAAAAGAAAAAGAAAAATAATAAACAGAAGCA [XGTACX_negctrl_site503],7.01
7,TTTTCGGATAATAATTGTACGAAACATTTAAAAAAA [XGTACX_site8898],6.75
8,TTGTAAGAAAAACACACACACACATATATATATATA [CACACA_site795],9.35
9,TATATAATATATATATGTACACATATACATTTTTAT [XGTACX_site2832],7.16
10,TAAATAGTTATAAAAGTGCAAAAAAAAAAAAAAAAA [GTGCAC_site9550],8.3
11,ACTCAAAATTATAATTGTACAAATGCTTTGTTTAAT [XGTACX_site3437],7.12
12,ATCATATATGTTATTACACACGTTATGTTATTATAA [CACACA_site2712],7.13
13,TTAATTTCAAGTAGAAGTACTTTTATGATTGTGAGG [XGTACX_site1247],7.07
14,GTGCATAGATGATATACACACAATATAATAGTATGT [CACACA_site5373],8.66
15,TATAATTTAGCTTGTGCATGCAGGTGCTACATTTGT [TGCATGCA_site217],9.22
16,GTTTCAAAATTAAACACACACAAAAAAAAAAAAAAA [CACACA_site2680],7.05
17,TATTATATCTTTATTATTCATCTAAAATTTGTATTT [TGCATGCA_negctrl_site233],6.67
18,ACATTATATCTAAGTACACACATTAATTTTTTTTTT [CACACA_site7850],7.42
19,CTATAACCTCTGTTCACACATATATCATAATTTACA [CACACA_site5446],7.17
20,TTTATTTTGATTTAATGTACAAATAGTAAAACAAAA [XGTACX_site4789],7.21
21,TATTTAAAAGCATATACACACAACTGGAATGAAAAG [CACACA_site6128],7.42
